Measured values reported in the supplement of paper PMC3334620.
In all, about 33,000 sequences were measured (“E-score (-0.5 to 0.5)”: median about -0.032, highest 2% from about 0.36 on). Some of the results follow.

molecular target: T1, Sko1 (UniProt Q02100); experiment: PBM E-score (8-mer binding enrichment) (E-score (-0.5 to 0.5)); higher = stronger / more preferred TF binding; most listed sequences are background and not binding sites; details: protein concentration: 200 nM; construct: GST-full length
T1 sequence: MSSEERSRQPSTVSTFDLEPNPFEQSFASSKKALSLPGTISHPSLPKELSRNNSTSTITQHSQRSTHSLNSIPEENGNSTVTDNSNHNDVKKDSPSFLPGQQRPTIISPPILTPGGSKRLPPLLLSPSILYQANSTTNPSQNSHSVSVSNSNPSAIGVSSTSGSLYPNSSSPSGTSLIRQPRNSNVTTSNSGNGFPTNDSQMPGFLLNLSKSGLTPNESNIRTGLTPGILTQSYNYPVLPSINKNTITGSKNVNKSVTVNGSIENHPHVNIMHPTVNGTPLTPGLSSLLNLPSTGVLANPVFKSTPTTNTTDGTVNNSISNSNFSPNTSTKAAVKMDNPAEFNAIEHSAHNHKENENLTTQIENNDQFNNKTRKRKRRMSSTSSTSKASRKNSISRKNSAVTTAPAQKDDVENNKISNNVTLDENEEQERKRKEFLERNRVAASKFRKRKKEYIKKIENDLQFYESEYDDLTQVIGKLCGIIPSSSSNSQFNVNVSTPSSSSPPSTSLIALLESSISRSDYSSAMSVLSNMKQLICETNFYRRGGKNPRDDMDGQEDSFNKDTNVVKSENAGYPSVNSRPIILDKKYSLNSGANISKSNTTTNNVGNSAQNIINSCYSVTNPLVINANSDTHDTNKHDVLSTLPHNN
Summary of the method: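 Yeast transcription factors, full-length or as DNA-binding domains, were expressed with a GST tag using PURExpress in vitro transcription/translation. At about 100-200 nM they were applied to universal all-10-mer Agilent arrays, double-stranded by primer extension on fresh or once-stripped slides. Fluorescent anti-GST detected bound protein, and masliner normalised the scans. E-scores for ungapped eight-base words, pooled with reverse complements, came from the Universal PBM Analysis Suite.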

Going from AGGATGAT to CGACGCGA, the “PBM E-score” value falls from 0.26 to 0.0277.

Going from GGCTCAGA to GGCATCCC, the “PBM E-score” value falls from -0.118 to -0.422.

Compared with CCACACAA, CGTGGTGA is higher in “PBM E-score” value: -0.082 for the first, 0.184 for the second.

First: ACTAGCAA
Second: CATCCAGA
The “PBM E-score” value of the first is higher: 0.0923 for the first, -0.133 for the second.

First: AGCCCACT
Second: ACCCGATA
The “PBM E-score” value of the first is lower: -0.215 for the first, -0.09 for the second.

CGGCGCGA and GCTGGTAC are the same in “PBM E-score” value: -0.131 for the first, -0.131 for the second.

Compared with CCACGCCA, CTTGTAGC is lower in “PBM E-score” value: 0.172 for the first, -0.0155 for the second.

Going from ACGCGGAC to GTCGTAGA, the “PBM E-score” value rises from -0.0648 to 0.166.

Compared with AGCCCCCT, AGTACCTG is higher in “PBM E-score” value: -0.233 for the first, -0.0457 for the second.

Compared with CCATTCTA, ACTTCGTG is higher in “PBM E-score” value: 0.0212 for the first, 0.104 for the second.

First: ACGCGGCT
Second: AGCTACAT
The “PBM E-score” value of the first is higher: 0.124 for the first, 0.0638 for the second.

Going from CGAAAATC to TATCGTCA, the “PBM E-score” value rises from 0.257 to 0.42.

Compared with CGAGATCA, CATTGCCA is higher in “PBM E-score” value: -0.0979 for the first, 0.0619 for the second.

Going from CCACTCCA to CTTCGGGA, the “PBM E-score” value rises from -0.23 to -0.224.

Compared with CCGCGTGA, TCAAGCAA is lower in “PBM E-score” value: 0.00382 for the first, -0.0777 for the second.

Going from AGCCGACG to AAGCGATT, the “PBM E-score” value rises from -0.132 to 0.143.

Compared with CCATAGTC, ACAATGGT is higher in “PBM E-score” value: -0.0986 for the first, -0.00162 for the second.

Going from GAATGGTC to ACCTGTAC, the “PBM E-score” value rises from -0.166 to -0.0558.

Compared with AACCCCAA, ATTCCAGG is lower in “PBM E-score” value: 0.0585 for the first, -0.12 for the second.

Compared with AGACCTCG, CCCGTCCA is lower in “PBM E-score” value: -0.0735 for the first, -0.131 for the second.

Compared with GATAAGTA, GATCCGCA is lower in “PBM E-score” value: 0.00048 for the first, -0.246 for the second.

Going from CCCGCATC to CCTGACAA, the “PBM E-score” value rises from -0.231 to -0.052.

Going from CGAACGAC to CCAGGGTC, the “PBM E-score” value falls from -0.0145 to -0.285.

First: TACGGCAA
Second: AGGCTGTC
The “PBM E-score” value of the first is higher: 0.0731 for the first, -0.22 for the second.

Going from CATGCGGG to AGGCGGGA, the “PBM E-score” value falls from -0.212 to -0.225.

Going from CAAGCGTC to ATGGCTAC, the “PBM E-score” value rises from 0.0646 to 0.105.

Going from GAGACATC to GACTACTA, the “PBM E-score” value rises from -0.225 to 0.0848.

First: CTATAAGC
Second: AAGAAAAT
The “PBM E-score” value of the first is lower: -0.0749 for the first, 0.292 for the second.

First: CAGGTACG
Second: CGCAATCA
The “PBM E-score” value of the first is lower: 0.0561 for the first, 0.217 for the second.

Compared with GCTGCGTA, GCGCGGAA is lower in “PBM E-score” value: 0.308 for the first, -0.103 for the second.

First: CAGGTGTA
Second: GAAGGGCC
The “PBM E-score” value of the first is higher: -0.0716 for the first, -0.194 for the second.

First: GTCCAATA
Second: GAGACGCA
The “PBM E-score” value of the first is higher: 0.0512 for the first, 0.0284 for the second.

Compared with CAGTGAAC, GTAACCAA is higher in “PBM E-score” value: 0.0558 for the first, 0.132 for the second.

Compared with ACTTTCAA, GATAAGAC is lower in “PBM E-score” value: 0.0541 for the first, -0.0439 for the second.

Going from GACGTAAA to GCCTGCGC, the “PBM E-score” value falls from 0.456 to -0.32.

Compared with ACACCGGA, GAGGAAAC is lower in “PBM E-score” value: -0.136 for the first, -0.213 for the second.

Compared with CAGTGGGG, ACCAGGCC is higher in “PBM E-score” value: -0.218 for the first, 0.103 for the second.

Going from TAAATCGA to CCCGCTAA, the “PBM E-score” value falls from 0.214 to -0.328.

Going from AACAGATA to ACCTATAA, the “PBM E-score” value falls from 0.169 to 0.0683.

Compared with ATCGAGTC, CTGCTGTC is lower in “PBM E-score” value: -0.102 for the first, -0.247 for the second.

Going from GACTTACA to CACTAGTA, the “PBM E-score” value falls from 0.103 to 0.0491.

First: GCGGTGCC
Second: GATGCCTA
The “PBM E-score” value of the first is lower: -0.242 for the first, -0.0964 for the second.

Compared with GATGCCAC, AGTTTCGC is lower in “PBM E-score” value: -0.0244 for the first, -0.0524 for the second.

Compared with ACCTTAAC, GGTGTATA is lower in “PBM E-score” value: 0.0471 for the first, -0.239 for the second.

Going from AACCGTCC to ACCAGCCC, the “PBM E-score” value rises from -0.321 to -0.239.

First: ATTAAGAG
Second: ATCCGACA
The “PBM E-score” value of the first is higher: -0.0418 for the first, -0.183 for the second.

First: CACCACAC
Second: CGTGACAG
The “PBM E-score” value of the first is lower: -0.103 for the first, 0.029 for the second.

Going from CCGAAGCA to CAACATTG, the “PBM E-score” value rises from -0.0738 to 0.11.

First: AGCGCGGG
Second: CATGTAGA
The “PBM E-score” value of the first is lower: 0.0352 for the first, 0.164 for the second.

Compared with GCTGGATA, ATCTGCAC is higher in “PBM E-score” value: -0.13 for the first, -0.125 for the second.

First: AGACGATG
Second: GACTTTCC
The “PBM E-score” value of the first is higher: 0.0602 for the first, -0.0378 for the second.

Compared with CGCGGTGC, AGGGGAGG is higher in “PBM E-score” value: -0.294 for the first, -0.144 for the second.

Compared with ATCCACAT, AAACAGTG is lower in “PBM E-score” value: 0.111 for the first, 0.0703 for the second.

Compared with CAACTTCG, AGCGTCCA is lower in “PBM E-score” value: -0.00172 for the first, -0.0171 for the second.

Compared with AATATTTG, CTTCCTGA is lower in “PBM E-score” value: 0.191 for the first, 0.00984 for the second.

First: CGATTGAC
Second: ATACGGGA
The “PBM E-score” value of the first is higher: 0.235 for the first, -0.14 for the second.

Compared with ACCCGACA, CCTATATA is higher in “PBM E-score” value: -0.102 for the first, 0.155 for the second.

First: CAAGCTAA
Second: ACGCCAGA
The “PBM E-score” value of the first is lower: -0.029 for the first, -0.0139 for the second.

Compared with AGACTCCG, CATATCAG is lower in “PBM E-score” value: -0.0865 for the first, -0.116 for the second.

Compared with GATTGCGA, CGGTTGAC is lower in “PBM E-score” value: 0.102 for the first, 0.0603 for the second.

First: AGATTCTG
Second: CGTAAAGA
The “PBM E-score” value of the first is lower: -0.181 for the first, 0.35 for the second.

Compared with CTGCTAGA, CAGACCCA is higher in “PBM E-score” value: -0.0391 for the first, -0.0318 for the second.

First: GCGTCCTA
Second: CCCGGCCG
The “PBM E-score” value of the first is higher: -0.133 for the first, -0.307 for the second.

First: GGGTACCC
Second: CAAAGCCA
The “PBM E-score” value of the first is lower: -0.158 for the first, 0.00031 for the second.

First: CATACATC
Second: AATACTGG
The “PBM E-score” value of the first is higher: 0.293 for the first, -0.0515 for the second.

First: CCCAGCAC
Second: AATTACAA
The “PBM E-score” value of the first is lower: -0.263 for the first, 0.152 for the second.

Compared with AGATTTAT, AACATAAA is higher in “PBM E-score” value: 0.107 for the first, 0.132 for the second.

First: GGGGACGA
Second: ACAACACG
The “PBM E-score” value of the first is lower: -0.125 for the first, 0.23 for the second.

Going from TTAGGCAA to CCATACGG, the “PBM E-score” value falls from 0.0203 to 0.0128.

First: ACTAGAGG
Second: ATCACTCA
The “PBM E-score” value of the first is lower: -0.18 for the first, 0.0754 for the second.

Compared with GGGAGCGA, GATCTAAA is higher in “PBM E-score” value: -0.241 for the first, 0.043 for the second.

Going from GATACTCA to GACTCGCC, the “PBM E-score” value falls from -0.0611 to -0.323.

Compared with CCGAGTGA, GGGATGCA is higher in “PBM E-score” value: -0.239 for the first, -0.232 for the second.

First: ACAATCTA
Second: GCTTAGCC
The “PBM E-score” value of the first is higher: 0.0759 for the first, -0.313 for the second.

Going from CATCTGGG to CGCACACC, the “PBM E-score” value rises from -0.114 to 0.0394.

Compared with ACGGCTTA, ATCTACCG is higher in “PBM E-score” value: -0.0107 for the first, 0.0589 for the second.

First: TGACTGAA
Second: AACTAGAG
The “PBM E-score” value of the first is lower: -0.122 for the first, -0.0318 for the second.

First: AGACACGA
Second: GCGGCAGC
The “PBM E-score” value of the first is higher: 0.136 for the first, -0.333 for the second.

Going from TAACTATA to GCCCAGGA, the “PBM E-score” value falls from 0.11 to -0.21.

First: AATCGAAT
Second: GACTAGCA
The “PBM E-score” value of the first is higher: 0.0932 for the first, -0.00763 for the second.

First: ACGTAGGA
Second: CTTTAGAA
The “PBM E-score” value of the first is higher: 0.446 for the first, -0.0195 for the second.

First: ACGCTGTA
Second: CTATAATC
The “PBM E-score” value of the first is higher: 0.17 for the first, 0.131 for the second.

First: CTGCCGCA
Second: AATGCCGA
The “PBM E-score” value of the first is lower: -0.276 for the first, -0.126 for the second.

First: CACCCGAA
Second: GTCGTCGA
The “PBM E-score” value of the first is lower: -0.0464 for the first, 0.0382 for the second.

Going from AGCGCCGC to AGCAGAGA, the “PBM E-score” value falls from -0.199 to -0.235.

Going from GGCGAAAA to ACGAAATG, the “PBM E-score” value rises from 0.0196 to 0.272.
